# Test results published in PubChem BioAssay AID488969 (Vanderbilt High Throughput Screening Facility, 2010).
# In all, about 110,000 compounds were measured (“z-score”: median about -0.1, highest 2% from about 2 on). The list shows a part of the results. Activity calls are given as the source filed them.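 Rule for the calls: active = z-score in the third read window above 3 or below -3; inactive = the rest.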
# Biological target: Metabotropic glutamate receptor 8 (Rattus norvegicus) (UniProt P70579)
# Test: mGluR8 Gi/Go-coupled signaling modulation – cell-based, rat, thallium flux, HTS, primary screen (AID 488969)
# Conditions: HEK293 rat mGluR8, GIRK (G protein-gated inwardly rectifying potassium channel) thallium flux, FluoZin2; at 10 µM; stronger effect = higher value; submaximal glutamate (EC20) added with thallium
# Sequence of UniProt P70579 (P70579 whole entry, looked up): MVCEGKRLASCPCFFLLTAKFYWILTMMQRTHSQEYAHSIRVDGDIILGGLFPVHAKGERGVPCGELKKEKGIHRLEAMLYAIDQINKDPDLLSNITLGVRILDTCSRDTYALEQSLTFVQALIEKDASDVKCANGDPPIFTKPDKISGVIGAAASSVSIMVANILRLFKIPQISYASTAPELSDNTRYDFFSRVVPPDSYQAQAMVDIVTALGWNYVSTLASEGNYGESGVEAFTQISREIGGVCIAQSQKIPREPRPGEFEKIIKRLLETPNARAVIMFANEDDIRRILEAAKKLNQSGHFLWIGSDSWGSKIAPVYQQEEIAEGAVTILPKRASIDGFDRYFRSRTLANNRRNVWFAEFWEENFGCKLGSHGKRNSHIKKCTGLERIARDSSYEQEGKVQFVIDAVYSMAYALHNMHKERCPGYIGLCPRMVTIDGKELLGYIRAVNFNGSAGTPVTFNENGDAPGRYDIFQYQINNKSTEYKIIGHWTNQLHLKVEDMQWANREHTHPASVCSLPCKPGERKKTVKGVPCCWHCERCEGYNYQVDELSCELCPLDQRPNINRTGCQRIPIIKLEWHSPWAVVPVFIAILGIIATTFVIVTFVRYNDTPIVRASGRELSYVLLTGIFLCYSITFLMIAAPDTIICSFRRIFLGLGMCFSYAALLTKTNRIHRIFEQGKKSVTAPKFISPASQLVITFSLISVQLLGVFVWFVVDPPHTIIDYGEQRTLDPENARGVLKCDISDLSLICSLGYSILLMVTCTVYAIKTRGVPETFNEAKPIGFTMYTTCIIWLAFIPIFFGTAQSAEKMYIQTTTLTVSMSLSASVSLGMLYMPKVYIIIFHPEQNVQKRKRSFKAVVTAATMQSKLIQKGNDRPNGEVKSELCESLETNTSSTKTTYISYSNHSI
row,Compound,z-score
1,CCOC(=O)c1c(NC(=O)CSc2nnc(-c3ccc(C)cc3)o2)sc(C(C)=O)c1C,-0.117
2,O=C(Nc1nc(-c2cccs2)cs1)c1cc2ccccc2oc1=O,0.0525
3,Nc1c(N2CCCC2)cc(Cl)c2nonc12,0.00595
4,O=C1N(c2cccc(Cl)c2)C(c2ccccc2)N2CCCN12 (centres undefined),-0.104
5,CCC(=O)Nc1cc(-c2nn(C)c(=O)c3ccccc23)ccc1N1CCOCC1,-0.532
6,Cc1c(C#N)c(N=CN(C)C)c(C(=O)c2ccc(Br)cc2)n1-c1ccc(Cl)cc1,-1.97
7,CC(C)[C@H](NC(=O)c1ccccc1Cl)C(=O)OCc1cc([N+](=O)[O-])cc2c1OCOC2,-0.769
8,Cc1nn(Cc2ccccc2)c(C)c1NC(=O)Cn1nc([N+](=O)[O-])c(Cl)c1C,0.325
9,CC(C)(C)S(=O)(=O)c1nc2ccccc2s1,0.279
10,Cc1c(Cl)c([N+](=O)[O-])nn1CC(=O)NC12CC3CC(CC(C3)C1)C2,-0.145
11,CC1Oc2ccccc2C=C1/C=N/NC(=O)c1ccccc1 (centres undefined),1.9
12,COc1ccc(-n2nnc3c(SCC(=O)Nc4ccc5c(c4)OCCO5)ncnc32)cc1,0.658
13,O=C(Nc1ccc(C#Cc2ccccc2)cc1)C1CC1,0.253
14,COCCNC(=S)NC1CC2CCCC(C1)N2Cc1ccco1 (centres undefined),-0.143
15,COc1ccc([C@H]2[C@H](C(=O)OC(C)(C)C)N3N=Cc4ccccc4C3C23C(=O)c2ccccc2C3=O)cc1OC (some centres undefined),-0.258
16,O=c1oc2ccccc2cc1-c1csc(NN=C2CCCC2)n1,-0.3
17,Cc1ccc(NC(=O)c2sccc2C)cc1S(=O)(=O)N(C)C,-0.581
18,Cc1cc(Cl)ccc1OCCCC(=O)NCCN1C(=O)S/C(=C\c2cccnc2)C1=O,0.246
19,Cc1ccccc1NC(=O)c1ccc2c(c1)C(=O)N(CCC(C)C)C2=O,0.778
20,Oc1ccc(CNCC2COc3ccccc3O2)cc1 (centres undefined),0.153
21,Cn1c(=O)c2[nH]c(CN(Cc3ccccc3)Cc3ccccc3)nc2n(C)c1=O,0.126
22,Cc1cc(N)c(NC2=CC(=O)CC(C)(C)C2)cc1C,0.101
23,CCOC(=O)C1=C(C)OC(N)=C(C#N)C1c1cc2ccccc2nc1N1CCCCC1 (centres undefined),0.0918

row,Compound,z-score
1,COC(=O)c1ccccc1NC(=O)C1CC(=O)N(c2ccc(F)cc2)C1 (centres undefined),2.15
2,O=C(NCC1COc2ccccc2O1)c1ccc(NC(=O)c2ccco2)cc1 (centres undefined),-0.221
3,CCOC(=O)Cn1c(=O)oc2cc(S(=O)(=O)NCC3CCCO3)ccc21 (centres undefined),0.198
4,Cc1onc(-c2c(F)cccc2Cl)c1C(=O)OCn1nnc2ccccc2c1=O,-1.21
5,COc1cc(NS(=O)(=O)c2ccc3c(c2)n(C)c(=O)n3C)cc(OC)c1,-0.0546
6,Clc1ccc(CO/N=C/c2c(-c3ccccc3)nc3n2CCS3)c(Cl)c1,-0.1
7,Cc1ccc(S(=O)(=O)NNC(=O)C2Cc3c(ccc4ccccc34)O2)cc1 (centres undefined),0.308
8,O=C(NCCCN1CCOCC1)c1coc2ccccc2c1=O,-0.654
9,COc1ccc(/C=N/NC(=O)c2nc(Cl)c(Cl)c(N)c2Cl)cc1COc1ccc(F)cc1F,-0.274
10,CC1CCN(CCCNC(=O)C2CC(=O)N(C3CCCCCC3)C2)CC1 (centres undefined),0.0065
11,COCCOCCn1c(CCCO)nc2ccccc21,-0.12
12,Fc1ccc(CSc2nc3ccccc3[nH]2)c2ccccc12,active: 10.7
13,CC1CN(S(=O)(=O)c2ccc(Cl)c(C(F)(F)F)c2)CC(C)O1 (centres undefined),-0.506
14,CC(=O)Nc1cc2c(cc1C(C)=O)OCCO2,-0.0455
15,Fc1ccc(-n2c(-c3ccc4c(c3)OCO4)n[nH]c2=S)cc1Cl,-0.0511
16,O=C1c2ccccc2C(O)N1CCN1CCOCC1 (centres undefined),-1.65
17,CCn1ncc(Br)c1C(=O)Nc1sc2c(c1C(=O)OC)CCC2,-0.118
18,C/C(=N\NC(=O)CNc1ccccc1Cl)C(C)(C)C,-0.712
19,CCOc1ccc(NS(=O)(=O)N(C)C)cc1,-0.0607
20,CCOC(=O)Cn1c2c(c(=N)c3ccccc31)CCC2,-0.132
21,CC1CCc2sc(C(=O)Nc3nnc(SCc4ccc(F)cc4)s3)cc2C1 (centres undefined),-0.825
22,O=C(O)C1C2CCC(O2)C1C(=O)NCCC1=CCCCC1 (centres undefined),1.21
23,Cc1cccc(C(=O)N2CCc3cc(-c4nc(NC(=O)Cn5nnc6ccccc6c5=O)sc4C)ccc32)c1,-0.116

row,Compound,z-score
1,CCn1c2ccccc2c2cc(NC(=O)c3ccc(Br)o3)ccc21,-0.12
2,COCCCNC(=S)N1CCN(c2ccc([N+](=O)[O-])cc2)CC1,-0.289
3,COc1ccc(Cn2nnnc2C(c2cc3ccc(OC)cc3[nH]c2=O)N2CCC(C)CC2)cc1 (centres undefined),-0.0941
4,COc1cccc(C(C2=C(O)CC(C)(C)CC2=O)C2C(=O)CC(C)(C)CC2=O)c1 (centres undefined),-0.0504
5,N#C/C(=C/c1ccc2c(c1)OCO2)C(=O)NCCc1c[nH]c2ccccc12,-0.115
6,COC(=O)C(NC(=O)c1ccccc1)(Nc1cc(C)cc(C)n1)C(F)(F)F (centres undefined),-0.0146
7,S=C(NN=C1C2CC3CC(C2)CC1C3)Nc1ccccc1,active: 11.7
8,CCC(C)n1c(S(=O)(=O)O)nc2ccccc21 (centres undefined),1.41
9,COc1ccc(C2Nc3ccccc3C(=O)N2O)cc1OC (centres undefined),-0.145
10,COc1ccc(N(CC(=O)NCc2ccccc2OC)S(=O)(=O)c2c(C)nn(C)c2C)cc1,-0.153
11,CCOc1cc(/C=N/NC(=O)c2ccncc2)ccc1OC(=O)c1ccc([N+](=O)[O-])cc1,-0.0809
12,Cc1ccc2nc(CCc3nc4ccc(C)cc4o3)oc2c1,0.382
13,CC1C(=O)CC(c2ccccc2)NC1c1ccccc1 (centres undefined),-0.85
14,C/C(=N\NC(=O)c1ccncc1)c1cc2ccccc2oc1=O,0.493
15,COc1ccccc1CNC(=O)CSCc1cnn(-c2ccccc2)c1-n1cccc1,0.000619
16,Cc1onc(-c2ccccc2Cl)c1C(=O)NC(=S)NCCc1ccccc1,2.63
17,CC1CN(C2CCN(C(=O)c3cccc(Cl)c3)CC2)CC(C)O1 (centres undefined),-0.0147
18,Cc1cc(C)cc(NC(=S)NC(=O)CCN2C(=O)c3ccccc3C2=O)c1,0.174
19,CCOc1cc(C)c(Cl)cc1S(=O)(=O)N1CCCC1,0.0735
20,O=C(c1ccco1)N1CCN(Cc2nc3ccccc3c(=O)n2-c2ccc(F)cc2)CC1,0.209
21,CCCCOC(=O)c1ccc(-c2ccc(/C=N/NC(=S)NCC)o2)cc1,-0.116
22,Cc1[nH]c2ccccc2c1C(Nc1nccs1)c1ccncc1 (centres undefined),-0.266
23,CCNC(=S)NNC(=O)c1ccccc1Cl,-0.211
